The list shows a part of the results.

In this test the test system is PF3D7_0420300 AP2 domain 1 (GST-tagged). Nature of the test: gcPBM binding intensity (ln(normalized median fluorescence intensity)); higher = stronger DNA binding. In short, it runs like this:
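The binding buffer was 1× PBS containing 1% milk, 0.2 mg/ml BSA, 0.5% salmon testes DNA and 0.03% Triton X-100. In it, GST-tagged P. falciparum DNA-binding domains expressed in E. coli were applied for 1 h to an Agilent 4 × 180k array of primer-extended double-stranded 36-bp intergenic genomic probes plus negative controls. Binding intensity, read with Alexa488 anti-GST antibody and a 488 nm scan, is the highest Masliner-normalised natural-log median intensity across replicate spots of either probe orientation.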
“GAATGAATTGTTATTAGTACACATGTGAATTATAAA [XGTACX_site6790]”: the “gcPBM binding intensity (ln)” value was 9.12.

On to “AAAAAGCAGGATTATACACACAAATATATATATGTT [CACACA_site1077]”, for which the “gcPBM binding intensity (ln)” value is 9.66.

Consider “TATATAAATTTAATAACACACATATAAAAATGAATT [CACACA_site2366]”, for which the “gcPBM binding intensity (ln)” value stood at 9.47.

On to “AACTTGTATATATACACACACACACTATCTTTTTTT [CACACA_site8601]”, for which the “gcPBM binding intensity (ln)” value amounted to 10.2.

For the sequence “TTTTATAATAAGTATGTAAAAATTATATATATATAT [CACACA_negctrl_site711]”, the “gcPBM binding intensity (ln)” value was found to be 8.99.

On to “ATATGTTTACGTAAATGTACACGTCAGTATATTTCT [XGTACX_site8199]”, for which the “gcPBM binding intensity (ln)” value turned out to be 9.39.

Take “ATATATATATAACATTGTACACACAAAGAAATAATA [XGTACX_site6440]”: the “gcPBM binding intensity (ln)” value worked out at 9.67.

Consider “ACAGGAGTATAACCTCGTACAAAATATATTTACCAT [XGTACX_site5805]”, for which the “gcPBM binding intensity (ln)” value worked out at 9.38.

“CCTAGAAAAGCATATACACACGCGCAAAATAAAATT [CACACA_site4902]”: the “gcPBM binding intensity (ln)” value was 9.64.

“TCTTTAAAAAAAAAAAAAAAAAATTCCAAATAAATA [TGCATGCA_negctrl_site538]”: the “gcPBM binding intensity (ln)” value came to 8.71.

Take “TAAAAATAAAGAAAATGTACATAAATAAAAATAAAG [XGTACX_site2279]”: the “gcPBM binding intensity (ln)” value is 9.56.

“TATATATATACATAATGTACAAGAATTTGTATTGAA [XGTACX_site627]”: the “gcPBM binding intensity (ln)” value stood at 9.26.

As to “CGACAAAAATTTTACAGTACAGTATAAACCTTTTTA [XGTACX_site290]”, the “gcPBM binding intensity (ln)” value stood at 8.94.

For “TTTTTCACATTTCAGTGTACATTTTAATCATATATA [XGTACX_site915]”, the “gcPBM binding intensity (ln)” value worked out at 9.3.

Consider “AAAAAAAAAAAAAAAAAAATATATTATATATATATA [XGTACX_negctrl_site467]”, for which the “gcPBM binding intensity (ln)” value came out at 8.93.

Regarding “ATTTTTTTTTTTTTTTTAAGACAAACTCTTAATTTA [CACACA_negctrl_site1389]”, the “gcPBM binding intensity (ln)” value amounted to 8.83.

For “ATTCCAAAAAAATCAAGTACTAATTTATTATATTAC [XGTACX_site3920]”, the “gcPBM binding intensity (ln)” value is 9.1.

With “TATTTTTTTAAGTGCAGTACACTTAATTTCCCCCAA [XGTACX_site7328]”, the “gcPBM binding intensity (ln)” value was determined as 8.95.

For “TCAAAAAATATATTTGCACACTCAAAAAAAAAAAAA [CACACA_site860]”, the “gcPBM binding intensity (ln)” value was 9.01.

In the case of “TACACACATTACAGATGTACATAAAATTAAAAAAAT [XGTACX_site1804]”, the “gcPBM binding intensity (ln)” value came out at 9.54.

As to “TATATATATATAAATACATGCATATAATTAATCCAT [TGCATGCA_site400]”, the “gcPBM binding intensity (ln)” value worked out at 9.25.

Consider “ATATTGTAGATATTGTGTACATATTTTACAACTTTT [XGTACX_site7621]”, for which the “gcPBM binding intensity (ln)” value came to 9.3.

Regarding “TATGTACACCCATATACACACCTCTATAATATATAT [CACACA_site4563]”, the “gcPBM binding intensity (ln)” value amounted to 9.67.

On to “ACATCATATTAAGAAAGTACAAAAAGAGAACATATA [XGTACX_site1268]”, for which the “gcPBM binding intensity (ln)” value came out at 9.73.

Values taken from the supplement of paper PMC11417369.
